Laboratory results as given in a collection of fitness landscapes (doi:10.1016/j.celrep.2020.107928).
The full ranking holds about 81,000 sequences; the median of “one-hybrid fitness for binding NBS DNA” is about -0.1, and the highest 2% start at about 0.36. The list shows a part of the results.

B1: Caulobacter ParB omega fusion; a variant is named by its letters at X, in order, B8GW30 (parent)
chain: MESVVVGEPGMSEGRRGLGRGLSALLGEVDAAPAQAPGEQLGGSREAPIEILQRNPDQPRRTFREEDLEDLSNSIREKGVLQPILVRPSPDTAGEYQIVAGERAWRAAQRAGLKTVPIMVRELDDLAVLEIGIIENVQRADLNVLEEALSYKVLMEKFERTQENIAQTIGKSXSHVANXMRLLXLPDEVQSYLVSGELTAXHARAIAAAADPVALAKQIIEGGLSVRETEALARKAPNLSAGKSKGGRPPRVKDTDTQALESDLSSVLGLDVSIDHRGSTGTLTITYATLEQLDDLCNRLTRGI

Variants of: B1
Experiment: one-hybrid fitness for binding NBS DNA (the Noc-binding site; scaled: cognate 1, non-cognate 0); higher = stronger binding
Details: with NBS DNA site
Outline: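 On M9-minus-histidine containing 0.1 mM IPTG and 5 mM 3-AT, E. coli USO cells with a HIS3 reporter, site 19 bp from the promoter, grew 48 hours at 37°C to select Caulobacter ParB libraries randomised at four specificity codons. Plasmids from before and after were Illumina-sequenced, with three replicate libraries pooled and variants under 10 reads left out. Fitness is the log change in variant-to-wild-type read ratio, rescaled against cognate and non-cognate.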

Variant | one-hybrid fitness for binding NBS DNA
CSPK | ≤ 0.2
QWYY | ≤ 0.2
SLPG | ≤ 0.2
ELAF | ≤ 0.2
HINN | ≤ 0.2
GMTR | ≤ 0.2
WFQF | ≤ 0.2
QKDC | ≤ 0.2
SFET | ≤ 0.2
TNSS | ≤ 0.2
IVTT | ≤ 0.2
SANY | ≤ 0.2
KTDV | ≤ 0.2
DLLD | ≤ 0.2
HIWG | ≤ 0.2
CKYC | ≤ 0.2
GTPC | ≤ 0.2
GTTY | ≤ 0.2
SPCF | ≤ 0.2
LYSR | ≤ 0.2
TEWS | ≤ 0.2
PMGY | ≤ 0.2
KVQG | ≤ 0.2
NCSE | ≤ 0.2
YTAY | ≤ 0.2
QQDC | ≤ 0.2

Variant | one-hybrid fitness for binding NBS DNA
KPET | ≤ 0.2
GESD | ≤ 0.2
ARTG | ≤ 0.2
CTHG | ≤ 0.2
SHVD | ≤ 0.2
AKLN | ≤ 0.2
MAKD | ≤ 0.2
AINP | ≤ 0.2
MYHL | ≤ 0.2
CGNA | ≤ 0.2
MSWS | ≤ 0.2
RWYM | ≤ 0.2
VRVG | ≤ 0.2
CPPK | ≤ 0.2
QVDF | ≤ 0.2
PPIT | ≤ 0.2
ISGL | ≤ 0.2
QMQQ | ≤ 0.2
TDDM | ≤ 0.2
TWNG | ≤ 0.2
MPYR | ≤ 0.2
EHLR | ≤ 0.2
LWNS | ≤ 0.2
ITWG | ≤ 0.2
RSSM | ≤ 0.2
HQLC | ≤ 0.2

Variant | one-hybrid fitness for binding NBS DNA
KFTT | ≤ 0.2
QFPA | ≤ 0.2
INLF | ≤ 0.2
LHGL | ≤ 0.2
QIKA | 0.351
SHAL | ≤ 0.2
WIPV | ≤ 0.2
RYIS | ≤ 0.2
ETLT | ≤ 0.2
YSVG | ≤ 0.2
PWGR | ≤ 0.2
NDCR | ≤ 0.2
EFPA | ≤ 0.2
HPHR | ≤ 0.2
WIGV | ≤ 0.2
HLCF | ≤ 0.2
CSKV | ≤ 0.2
RGVC | ≤ 0.2
MQNF | ≤ 0.2
KYKC | ≤ 0.2
YVSC | ≤ 0.2
QSHM | ≤ 0.2
VTSP | ≤ 0.2
WDKC | ≤ 0.2
